# Measured values: PubChem BioAssay AID588855 (National Center for Advancing Translational Sciences (NCATS), 2011)
# Where “and” joins values, the source holds several entries; their conditions need not be identical. Equal entries are not always repeated. Among all 410,000 compounds or so, about 5,000 (1.2%) were called active. This list was built around the results that the source calls inconclusive (neither active nor inactive); the mix of calls is not that of the screen. Calls follow the shape of the dose curve; as a rule, active = well fitted inhibition curve with a large enough effect; inconclusive = small, poorly fitted or top-dose-only effect; inactive = no such curve, though single readings can be large or run the other way. Potencies beside an inconclusive call are fits to weak or partial responses and may not hold up.
# Experiment: qHTS for Inhibitors of TGF-b; also: nearly all actives have a fitted effect of over 65% in size
# Conditions: HepG2 CAGA-GFP TGF-b/SMAD3 reporter, GFP fluorescence, 18 h, TGF-beta stimulated, 500 pg/mL final; series mostly up to 46.1 µM; activity, negative = inhibition: at the top concentration
# How it was run: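 Using HEPG2 CAGA-GFP reporter cells at 1000 cells/well, we pinned test compounds, stimulated with recombinant TGF-beta (500 pg/mL final) and measured total well GFP after 18 h.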
# % is scaled to controls: 0 for no effect and ±100 for the full control effect; potency is read from the fitted curve at half-maximal effect; tags tell the direction and shape of the fitted curve.
SMILES,Potency,"activity, negative = inhibition"
CCCN1CCN(CCCNC(=O)c2cc3c(Cl)nc4ccccc4c3s2)CC1,"inconclusive: 35.5 µM [inhibitor, single point]",
Cc1sc2ncnc(NCC(C)(C)N3CCOCC3)c2c1C,"inconclusive: 11.2 µM [inhibitor, partial curve, poor fit]",
Cc1cc(Oc2cc(NN3CCCCC3)c([N+](=O)[O-])cc2[N+](=O)[O-])c(C(=O)c2ccccc2)cc1Cl,,inactive: -7.28%
O=C(c1ccccc1)c1nn(-c2ccccc2)c2nnc(Cc3ccccc3)c(=O)n12,,inactive: -8.59%
COc1ccc(C2CC(c3ccc(Br)cc3)Nc3nc(N)nn32)cc1 (stereo unspecified),"inconclusive: 3.98 µM [inhibitor, single point]",
CCCC(=O)Nc1nc2ccc(NC(=O)c3c(F)c(F)c(OC)c(F)c3F)cc2s1,"inconclusive: 5.01 µM [inhibitor, partial curve, poor fit]",
O=[N+]([O-])c1ccccc1/C=N/N1CCN(c2ccc(Cl)cc2)CC1,,inactive: 1.45%
O=C(CCNS(=O)(=O)c1ccccc1F)N1CCN(Cc2ccccc2)CC1,"inconclusive: 0.1 µM [inhibitor, full curve, poor fit]",
COc1ccc(C(=O)/C=C/C(=O)N(Cc2ccc(F)cc2)C(C(=O)NC2CCCCC2)c2ccncc2)c(O)c1 (stereo unspecified),active: 10 µM,
COc1ccc(-c2c(-c3cc(OC)cc(OC)c3)n(C)c3ccc(-c4cnc(OC)nc4)cc23)cc1,,inactive: 4.11%
Cc1[nH]c2c(Br)cccc2c1[C@H]1[C@@H](CC#N)C1(C)C,"inconclusive: 35.5 µM [inhibitor, partial curve, poor fit]",
COc1cccc(NC(=S)NC2CC(C)CC(C)(C)C2)c1 (stereo unspecified),"inconclusive: 35.5 µM [inhibitor, single point]",
CCOc1ccc(CNC(=O)c2ccc(Sc3ccc(Cl)cc3)c(NC(C)=O)c2)cc1,"inconclusive: 7.08 µM [inhibitor, full curve, poor fit] and inconclusive: 12.6 µM [inhibitor, partial curve, poor fit]",
CC1(C)CC(=O)C/C(=N\NC(=O)C2C3CCCCC32)C1 (stereo unspecified),"inconclusive: 5.01 µM [inhibitor, full curve, poor fit]",
Cc1ccc(C(=O)N/N=C/c2ccc([N+](=O)[O-])s2)cc1,"inconclusive: 0.447 µM [inhibitor, full curve, poor fit]",
Cc1ccc(S(=O)(=O)N(CC(=O)N/N=C/c2cccc3c2OCCO3)c2ccccc2F)cc1,"inconclusive: 11.2 µM [inhibitor, partial curve, poor fit]",
